About 1,200 (0.4%) of roughly 300,000 compounds were called active. The shares of active, inactive and inconclusive entries below differ from those in the screen. The call rests on the fitted dose curve; in most records, active means well fitted inhibition curve with a large enough effect; inconclusive means small, poorly fitted or top-dose-only effect, or another doubt; inactive means no such curve, though single readings can be large or run the other way. Potencies beside an inconclusive call are fits to weak or partial responses and may not hold up.
Target: Lysosomal alpha-glucosidase (Homo sapiens) (UniProt P10253)
Assay: qHTS Assay for Inhibitors and Activators of Human alpha-Glucosidase Cleavage of Glycogen
Settings: recombinant GAA, glycogen substrate, Amplex Red glucose oxidase fluorescence; series mostly up to 76.4 µM
Method in brief: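 qHTS, 1536-well; enzyme 4 nM final; cpd up to 77 uM; substrate bovine liver glycogen 30 ug; 50 mM citrate/phosphate pH 5.0, 0.01% Tween-20; 37 C, 40 min; Amplex Red detection 45 min RT; Hill fit → AC50.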
Potency means the concentration at half of the fitted maximal effect.

| Compound | Potency |
| --- | --- |
| C/C(=N/N1CCN(c2ccccc2)CC1)c1cccc([N+](=O)[O-])c1 | inconclusive: 6.31 µM [inhibitor, full curve] |
| CCC1(c2ccccc2)NC(=S)N(c2ccc(C)c(C)c2)N1 (centres undefined) | inconclusive: 35.2 µM [inhibitor, partial curve] |
| CCN(Cc1ccccc1)c1ccc(/C=N/NS(=O)(=O)c2ccc(C)c([N+](=O)[O-])c2)cc1 | inconclusive: 39.8 µM [inhibitor, partial curve] |
| COC(=O)CC1=NN(c2ccc(OC)cc2)C(=O)/C1=C\c1ccc(Cl)cc1 | inconclusive: 28.2 µM [inhibitor, single point] |
| CCOc1ccc(NC(=O)CC2Nc3cccc4cccc(c34)NC2=O)cc1 (centres undefined) | inconclusive: 11.2 µM [inhibitor, partial curve] |
| CCCN(CCC)Cc1c(C(=O)N/N=C/CCc2ccccc2)nnn1-c1nonc1N | inconclusive: 11.2 µM [inhibitor, full curve] |
| Oc1ccc(O)c(Cc2nc3ccccc3s2)c1 | active: 5.62 µM |
| CC1CCN(C(=O)CN2c3ccc(Br)cc3-c3ccccc3S2(=O)=O)CC1 | inactive |
| CCOc1ccccc1-c1noc(CSc2nnc(-c3ccncc3)n2-c2ccc(F)cc2)n1 | inactive |
| O=C(CN1CCN(c2ccc(O)cc2)CC1)Nc1cc(S(=O)(=O)N2CCCC2)ccc1Cl | inconclusive: 3.52 µM [inhibitor, full curve] |
| COc1ccc(NC(=O)CSc2ccc(-c3cccs3)nn2)cc1 | inactive |
| CCOC(=O)c1c(Nc2nc(C)c(C(=O)NC)s2)sc(C)c1C | inconclusive: 22.2 µM [inhibitor, single point] |
| Cc1cccc(-c2nc(Nc3ccc(N4CCOCC4)cc3)c3ccccc3n2)c1 | inactive |
| CCc1nc(Nc2ccc(O)cc2)c2oc3ccccc3c2n1 | inconclusive: 7.03 µM [inhibitor, single point] |
| Cc1cccn2c(Nc3ccc4c(c3)OCCO4)c(-c3ccc(Br)o3)nc12 | inconclusive: 11.2 µM [inhibitor, partial curve] |
| Cc1cc(C)n2nc(C(=O)Oc3ccc4c(c3)OCO4)nc2n1 | active: 12.5 µM |
| O=C(NC1CCCC1)C(c1ccncc1)N(C(=O)c1csnn1)C1CCCC1 (centres undefined) | inconclusive: 28 µM [inhibitor, single point] |
| Cc1sc2c3ccsc3ccc2[n+]1C | inconclusive: 7.94 µM [inhibitor, single point] |
| C/C(=N\N1CCN(C)CC1)c1ccc(Cl)c(Cl)c1 | active: 28.2 µM |
| CC(=O)[C@@H]1[C@@H](C(=O)c2ccccc2)[C@]2(C(=O)Nc3ccccc32)[C@H]2C=Cc3cc(F)ccc3N12 | inconclusive: 50.1 µM [activator, single point] |
| COc1ccc(OCC(=O)Nc2ccccc2O)cc1 | inconclusive: 39.8 µM [inhibitor, single point] |
| O=S(=O)(NCC1NCCc2ccccc21)c1ccccc1 (centres undefined) | inconclusive: 31.6 µM [activator, single point] |

| Compound | Potency |
| --- | --- |
| C/C(=N\NS(=O)(=O)c1ccc(Cl)cc1)c1ccc(O)cc1 | inconclusive: 19.8 µM [inhibitor, single point] |
| Cc1ccc(S(=O)(=O)NNC(=S)NC(=O)c2ccc([N+](=O)[O-])cc2)cc1 | inconclusive: 22.4 µM [inhibitor, partial curve] |
| COc1ccc(C2=NN3C(C2)c2ccccc2OC3c2cccs2)cc1 (centres undefined) | inconclusive: 17.8 µM [activator, partial curve] |
| COc1cc(C2NC(=O)NC(C)=C2C(C)=O)ccc1O (centres undefined) | inconclusive: 14.1 µM [inhibitor, partial curve] |
| CCCN1CCCc2cc(CN)ccc21 | inconclusive: 50.1 µM [inhibitor, partial curve] |
| CCOC(=O)C(=NCCCN1CCOCC1)NNc1cccc(C(F)(F)F)c1 | inconclusive: 8.91 µM [inhibitor, partial curve] |
| CCc1cccc(C)c1Nc1c(-c2ccc(N3CCOCC3)cc2)nc2ncccn12 | inconclusive: 22.4 µM [inhibitor, partial curve] |
| COCCCNc1oc(/C=C/c2ccccc2)nc1C#N | inconclusive: 35.5 µM [inhibitor, single point] |
| O=[N+]([O-])c1cc(C2Nc3cccc4cccc(c34)N2)ccc1Cl | inconclusive: 20 µM [inhibitor, partial curve] |
| Cc1ccc(C)c(NNC(=O)C(=O)NNc2cc(C)ccc2C)c1 | inconclusive: 4.47 µM [inhibitor, full curve] |
| CCCc1ccc2oc(C(=O)NCCN3CCCC(C(N)=O)C3)c(C)c2c1 (centres undefined) | inactive |
| O=C(NNc1nc(-c2ccccc2)cs1)c1cccs1 | inconclusive: 31.6 µM [inhibitor, partial curve] |
| Cc1cc(=O)[nH]c(N=N/C(=N/Nc2ccc(O)cc2)c2ccccc2)n1 | inconclusive: 39.8 µM [inhibitor, partial curve] |
| CCN(c1ccc(C)cc1C)S(=O)(=O)c1nnc(NC(=O)CC(C)C)s1 | inactive |
| Cc1nc2nc(-c3cccs3)cn2nc1C | inactive |
| Cc1cc(=O)oc2cc(OCC(=O)NC(Cc3c[nH]c4ccc(O)cc34)C(=O)O)c(Cl)cc12 (centres undefined) | active: 7.94 µM |
| O=C(O)c1ccc(N=NN2CCCCC2)cc1 | inconclusive: 39.5 µM [activator, single point] |
| COc1ccc(-c2nc3ccc(C)cn3c2NCc2ccc3c(c2)OCO3)cc1 | inconclusive: 3.14 µM [inhibitor, full curve] |
| Nc1nc2ccccc2n1C(=O)c1ccc(F)cc1 | inactive |
| O=[N+]([O-])c1cccc(CN2CCN(c3cccc4[nH]ccc34)CC2)c1 | inconclusive: 8.84 µM [inhibitor, partial curve] |
| C=CCNc1oc(/C=C/c2ccccc2)nc1C#N | inconclusive: 19.8 µM [inhibitor, partial curve] |
| COc1cccc(CNC(=O)CCC(=O)N2CC3CCCN3c3ccccc32)c1 (centres undefined) | inconclusive: 10 µM [inhibitor, partial curve] |

Source: PubChem BioAssay AID2100 (National Center for Advancing Translational Sciences (NCATS), 2009)
